Laboratory results from the RNAGym collection of RNA variant scans (doi:10.1073/pnas.2313332121).
Variants at the background level are over-represented here.

B1: TPR 5TU (parent)
chain: GGAUCUUCUCGAUCUAACAAAAAAGACAAAUCUGCCACAAAGCUUGAGAGCAUCUUCGGAUGCAGAGGCGGCAGCCUUCGGUGGCGCGAUAGCGCCAACGUUCUCAACUAUGACACGCAAAACGCGUGCUCCGUUGAAUGGAGUUUAUCAUG

Variants of: B1
Experiment: polymerase ribozyme fitness, log enrichment relative to wild type (log ratio); higher = more active; in vitro selection for triplet polymerase activity
How it was run: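 Each subunit of a heterodimeric triplet polymerase ribozyme was mutagenized into a library by PCR, transcribed, and subjected to one round of in vitro selection, run in triplicate. Libraries were annealed with a biotinylated primer, the partner subunit and triplets, incubated frozen at −7 °C, and extended constructs were gel-excised, captured on streptavidin beads and recovered by RT-PCR. Input and output libraries were sequenced on Illumina, keeping genotypes with ≥10 input reads and ≥1 read per output. Fitness is log base 2 of genotype enrichment divided by wild-type enrichment, from inverse-variance-weighted replicate averages.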

G50U U77A and C51U U82A G86A A98U A147G cannot be ordered by “polymerase ribozyme fitness (log ratio)” value: no more than -4.2 for the first, no more than -4.2 for the second.

A52C G70A U90G A106U and A52C C75A G84A C108G A110C cannot be ordered by “polymerase ribozyme fitness (log ratio)” value: no more than -4.2 for the first, no more than -4.2 for the second.

Going from C51U C75G A91U A138G to C51U G84U, the “polymerase ribozyme fitness (log ratio)” value rises from no more than -4.2 to -1.52.

Compared with C51A A60G G65U G84U G94C U146C, C51U U56A C57A C105G A122G is higher in “polymerase ribozyme fitness (log ratio)” value: no more than -4.2 for the first, -2.19 for the second.

C51U A91G C93U and G50A U53A U55A U56A G67C G92A G126U cannot be ordered by “polymerase ribozyme fitness (log ratio)” value: no more than -4.2 for the first, no more than -4.2 for the second.

Compared with A52G C54U C95U U101A U102C A110U A142C A147C, C51U C75U C118U is higher in “polymerase ribozyme fitness (log ratio)” value: no more than -4.2 for the first, -1.3 for the second.

A52G G84U U127G and A52C G68A G81U G92A C125A G136U G140U U151A cannot be ordered by “polymerase ribozyme fitness (log ratio)” value: no more than -4.2 for the first, no more than -4.2 for the second.

G50A G62C G67C G68A C132U and A52G U56A A91U G140A cannot be ordered by “polymerase ribozyme fitness (log ratio)” value: no more than -4.2 for the first, no more than -4.2 for the second.

A52C G88U C105A A122G A150C and C51U C87A U127A A142C cannot be ordered by “polymerase ribozyme fitness (log ratio)” value: no more than -4.2 for the first, no more than -4.2 for the second.

Going from A52C G84U to C51U C57G A60C C69U C85G C118A, the “polymerase ribozyme fitness (log ratio)” value falls from -2.64 to no more than -4.2.

G50A U82A C93U C95G G140C A150G G152U and A52C U53A C85G G117A G141A cannot be ordered by “polymerase ribozyme fitness (log ratio)” value: no more than -4.2 for the first, no more than -4.2 for the second.

A52U C54A G70A A89G G92C A119C G126A G141A and G50C C149U cannot be ordered by “polymerase ribozyme fitness (log ratio)” value: no more than -4.2 for the first, no more than -4.2 for the second.

G50C U78G G84A G124C and A52C C54A A137U A147C cannot be ordered by “polymerase ribozyme fitness (log ratio)” value: no more than -4.2 for the first, no more than -4.2 for the second.

First: A52C C75U A97U U109G C114A
Second: A52G G65C
The “polymerase ribozyme fitness (log ratio)” value of the first is higher: -3.53 for the first, no more than -4.2 for the second.

Going from G50A C125U to A52C U55A U82C, the “polymerase ribozyme fitness (log ratio)” value falls from -1.35 to -2.36.

G50A G71A C96G C105A and A52C G88A G94C C95U A98U C123U C125U cannot be ordered by “polymerase ribozyme fitness (log ratio)” value: no more than -4.2 for the first, no more than -4.2 for the second.

First: G50C A64G A89C G94C U101G A106U G133U
Second: G50U C75G G86U C87A A89U
The “polymerase ribozyme fitness (log ratio)” value of the first is higher: -4.12 for the first, no more than -4.2 for the second.

Going from C51A C96A A107U A115C to A52G U53A A89C C93U, the “polymerase ribozyme fitness (log ratio)” value rises from no more than -4.2 to -2.02.

G50U C79G G88U G94C U101C C125A and C51G G68A C93G U101G cannot be ordered by “polymerase ribozyme fitness (log ratio)” value: no more than -4.2 for the first, no more than -4.2 for the second.

G50A U55A G70A G83C U101A U104A C105G G124U and A52G U56G C87U A120G U134G G140C U148A cannot be ordered by “polymerase ribozyme fitness (log ratio)” value: no more than -4.2 for the first, no more than -4.2 for the second.

A52G C75A A91G C149A and G50C C76G G83U G86C C118U A121U cannot be ordered by “polymerase ribozyme fitness (log ratio)” value: no more than -4.2 for the first, no more than -4.2 for the second.

A52G G59C C75U C87U U90G C95A G117C A147U and A52G G81C G88U C114U U134C G140C cannot be ordered by “polymerase ribozyme fitness (log ratio)” value: no more than -4.2 for the first, no more than -4.2 for the second.

A52G G88A C95U A122U G136C and C51U C57A U82C C85A A110C A121U cannot be ordered by “polymerase ribozyme fitness (log ratio)” value: no more than -4.2 for the first, no more than -4.2 for the second.

A52C C75G C76G C85G and C51A G59U G84U cannot be ordered by “polymerase ribozyme fitness (log ratio)” value: no more than -4.2 for the first, no more than -4.2 for the second.

C51A A66G G71A G80C G94C A113G and A52C G58U G62C C96G G141U cannot be ordered by “polymerase ribozyme fitness (log ratio)” value: no more than -4.2 for the first, no more than -4.2 for the second.

Compared with C51A U127G A137C, C51U G86U is higher in “polymerase ribozyme fitness (log ratio)” value: no more than -4.2 for the first, -1.45 for the second.

G50A C69A C76G and G50A G67U C79U G86C U101A C116G cannot be ordered by “polymerase ribozyme fitness (log ratio)” value: no more than -4.2 for the first, no more than -4.2 for the second.

G50C U55A A64C C87A U145G and C51G G71U U90A C93U cannot be ordered by “polymerase ribozyme fitness (log ratio)” value: no more than -4.2 for the first, no more than -4.2 for the second.

G50C A97G A106U C108U G140C A147C and G50U U53G G80A C85U U90C C93A A97U C99G A119G U127C cannot be ordered by “polymerase ribozyme fitness (log ratio)” value: no more than -4.2 for the first, no more than -4.2 for the second.

Going from G50C C87U to G50C C51U G94C C116G C129A, the “polymerase ribozyme fitness (log ratio)” value falls from -3.6 to no more than -4.2.

Compared with G50U C95G A142C U148A, A52C G81A G86U is higher in “polymerase ribozyme fitness (log ratio)” value: no more than -4.2 for the first, -2.1 for the second.

First: A52U C85A
Second: C51U A98U U135C U144A
The “polymerase ribozyme fitness (log ratio)” value of the first is lower: no more than -4.2 for the first, -3.82 for the second.

Going from C51U C85G A115C to G50U G81A C95U, the “polymerase ribozyme fitness (log ratio)” value rises from -1.9 to 0.505.

G50U C95G A122U G152C and C51U C57A G58A C79G U127A cannot be ordered by “polymerase ribozyme fitness (log ratio)” value: no more than -4.2 for the first, no more than -4.2 for the second.

G50U C93U C103G G141C and C51A G71A G92A cannot be ordered by “polymerase ribozyme fitness (log ratio)” value: no more than -4.2 for the first, no more than -4.2 for the second.

G50C U77A G84A and G50C C63G C75A cannot be ordered by “polymerase ribozyme fitness (log ratio)” value: no more than -4.2 for the first, no more than -4.2 for the second.

C51A U56A C79A C93G A98C C99U C118A C123G and A52G U53A C96A G133U cannot be ordered by “polymerase ribozyme fitness (log ratio)” value: no more than -4.2 for the first, no more than -4.2 for the second.

Going from C51U A60U G84A A98G A121C G143U A147C to A52C A89U C96G G141U, the “polymerase ribozyme fitness (log ratio)” value rises from no more than -4.2 to -1.47.

Going from G50U A60C G84A to A52G C75A U82A C95A, the “polymerase ribozyme fitness (log ratio)” value falls from -2.47 to no more than -4.2.

Compared with G50U G81C U134A, A52U A73G U102C is lower in “polymerase ribozyme fitness (log ratio)” value: -2.19 for the first, no more than -4.2 for the second.

Compared with G50C G81A G86U C87A G136U, A52G G141A is higher in “polymerase ribozyme fitness (log ratio)” value: no more than -4.2 for the first, -1.24 for the second.

First: A52C C57U G81C
Second: A52C C76G G94C
The “polymerase ribozyme fitness (log ratio)” value of the first is higher: -1.59 for the first, no more than -4.2 for the second.
